According to the antibiotic and cytotoxicity screens of Wong et al. (2023):
This is one part of the list.

Legend:
HSkMC = human skeletal muscle cells; assay: cytotoxicity call (relative viability < 0.9); settings: 10 µM
HepG2 = assay: cytotoxicity call (relative viability < 0.9); settings: 10 µM
S. aureus RN4220 = assay: growth inhibition call (relative growth <= 0.2); settings: 50 µM

Row | Structure (SMILES) | cytotoxicity call (HSkMC) | cytotoxicity call (HepG2) | growth inhibition call (S. aureus RN4220)
1 | COc1ccc(CCN(C)CCCOc2ccc(S(=O)(=O)c3c(C(C)C)c4ccccc4n3C)cc2)cc1OC | active | active | inactive
2 | C[C@@H]1CN([C@H](C)CO)C(=O)Cc2cc(NS(=O)(=O)c3cn(C)cn3)ccc2O[C@H]1CN(C)S(=O)(=O)c1ccccc1 | inactive | inactive | inactive
3 | COc1ccccc1C#Cc1ccc2c(c1)O[C@@H](CN(C)Cc1cncnc1)[C@@H](C)CN([C@H](C)CO)S2(=O)=O | inactive | inactive | inactive
4 | C[C@H](O)C#Cc1cnc2c(c1)C(=O)N([C@H](C)CO)C[C@H](C)[C@@H](CN(C)Cc1cncnc1)O2 | inactive | inactive | inactive
5 | C[C@@H]1CN([C@@H](C)CO)C(=O)c2cc(NC(=O)Nc3ccccc3)ccc2O[C@@H](C)CCCCO[C@@H]1CN(C)C(=O)c1ccccc1 | inactive | inactive | inactive
6 | C=C1C(=O)OC2CC3(C)CCCC(C)C3=CC12 (stereo not given) | active | active | inactive
7 | C[C@H](CO)N1C[C@H](C)[C@H](CN(C)C(=O)Nc2ccc(C(F)(F)F)cc2)Oc2ccc(NC(=O)NC3CCCCC3)cc2CC1=O | inactive | inactive | inactive
8 | Cc1noc(C)c1S(=O)(=O)Nc1ccc2c(c1)CC(=O)N([C@H](C)CO)C[C@@H](C)[C@@H](CN(C)C(=O)NC(C)C)O2 | inactive | inactive | inactive
9 | O=C(CCCCCCC(=O)Nc1ccc([C@H]2O[C@@H](CSc3nc(-c4ccccc4)c(-c4ccccc4)o3)C[C@H](c3ccc([N+](=O)[O-])cc3)O2)cc1)NO | inactive | active | inactive
10 | CCn1nnc(NC(=O)Cc2ccccc2)n1 | inactive | inactive | inactive
11 | C[C@H]1CN([C@@H](C)CO)C(=O)c2cccc(NC(=O)C3CC3)c2O[C@@H]1CN(C)S(=O)(=O)c1ccc(Cl)cc1 | inactive | inactive | inactive
12 | C[C@H](CO)N1C[C@H](C)[C@H](CN(C)C(=O)Nc2cc(F)ccc2F)Oc2ncc(C#CCN(C)C)cc2C1=O | inactive | inactive | inactive
13 | Cc1noc(C)c1S(=O)(=O)N(C)C[C@H]1OCCCC[C@@H](C)Oc2ccc(NC(=O)Nc3cccc4ccccc34)cc2C(=O)N([C@H](C)CO)C[C@@H]1C | inactive | inactive | inactive
14 | C[C@H]1CN([C@@H](C)CO)C(=O)c2cc(NC(=O)CCC(F)(F)F)ccc2O[C@H]1CN(C)Cc1ccc(-c2ccccc2)cc1 | inactive | inactive | inactive
15 | C[C@@H]1CN([C@@H](C)CO)S(=O)(=O)c2ccc(C3=CCCCC3)cc2O[C@H]1CN(C)Cc1cncnc1 | inactive | inactive | inactive
16 | CC(C)NC(=O)N(C)C[C@H]1Oc2c(NS(=O)(=O)c3ccccc3)cccc2C(=O)N([C@@H](C)CO)C[C@@H]1C | inactive | inactive | inactive
17 | C[C@@H]1CN([C@@H](C)CO)S(=O)(=O)c2ccc(C3=CCCC3)cc2O[C@@H]1CN(C)C(=O)C1CCOCC1 | inactive | inactive | inactive
18 | C[C@@H]1CN([C@@H](C)CO)C(=O)Cc2cc(NC(=O)NC3CCCCC3)ccc2O[C@@H]1CN(C)Cc1ccc(C(=O)Nc2ccccc2N)cc1 | inactive | inactive | inactive
19 | C[C@H]1CN([C@@H](C)CO)C(=O)c2cc(Br)cnc2O[C@@H]1CN(C)S(=O)(=O)c1ccc(F)cc1 | inactive | inactive | inactive
20 | C[C@H]1CN([C@@H](C)CO)C(=O)Cc2cc(NC(=O)Nc3ccc(F)cc3)ccc2O[C@H]1CN(C)CC1CCCCC1 | active | active | inactive
21 | COc1ccc(S(=O)(=O)Nc2ccc3c(c2)C(=O)N([C@@H](C)CO)C[C@@H](C)[C@@H](CN(C)C(=O)CCC(F)(F)F)OCCCC[C@H](C)O3)cc1 | inactive | inactive | inactive
22 | C[C@@H]1CN([C@@H](C)CO)C(=O)c2cccc(NC(=O)CCCCCC(=O)Nc3ccccc3N)c2O[C@H]1CN(C)S(=O)(=O)c1cn(C)cn1 | inactive | inactive | inactive
23 | O=C(C[C@H]1C[C@@H]2c3cc(NC(=O)C4CCOCC4)ccc3O[C@@H]2[C@H](CO)O1)NCCN1CCCCC1 | inactive | inactive | inactive
24 | C[C@H](CO)N1C[C@H](C)[C@H](CN(C)Cc2ccc(Cl)c(Cl)c2)Oc2ccc(NS(=O)(=O)c3ccc(Cl)cc3)cc2CC1=O | active | active | inactive
25 | C[C@@H]1CN([C@@H](C)CO)C(=O)Cc2cc(NC(=O)CCC(F)(F)F)ccc2O[C@@H]1CN(C)S(=O)(=O)c1ccccc1 | inactive | active | inactive
26 | C=CC[C@@H](CC(=O)NCCO)C(=O)NC[C@@H](OC(=O)[C@@H](CC=C)CC(=O)OC(C)(C)C)c1ccccc1 | inactive | inactive | inactive
27 | C[C@@H]1CN([C@H](C)CO)C(=O)c2cc(NS(C)(=O)=O)ccc2O[C@@H](C)CCCCO[C@H]1CN(C)S(=O)(=O)c1ccccc1 | inactive | inactive | inactive
28 | O=C(C[C@H]1CC[C@H]2[C@@H](COC[C@@H](O)CN2Cc2ccccc2F)O1)N[C@@H]1CCN(Cc2ccccc2)C1 | inactive | inactive | inactive

Row | Structure (SMILES) | cytotoxicity call (HSkMC) | cytotoxicity call (HepG2) | growth inhibition call (S. aureus RN4220)
29 | CCn1cc(C2=NO[C@H](C(=O)O)C2)c(C)n1 | inactive | inactive | inactive
30 | Cc1noc(C)c1S(=O)(=O)Nc1ccc2c(c1)C(=O)N([C@H](C)CO)C[C@@H](C)[C@@H](CN(C)Cc1ccccc1)O2 | inactive | inactive | inactive
31 | C[C@@H]1CN([C@H](C)CO)C(=O)Cc2cc(NC(=O)Nc3ccccc3)ccc2O[C@@H]1CN(C)S(C)(=O)=O | inactive | inactive | inactive
32 | Cn1cc(C(F)(F)F)ccc1=S | inactive | inactive | inactive
33 | C[C@@H]1CN([C@@H](C)CO)C(=O)c2cc(NC(=O)Cc3cn(C)c4ccccc34)ccc2O[C@H]1CN(C)Cc1ccc(C(=O)Nc2ccccc2N)cc1 | inactive | inactive | inactive
34 | COc1ccc([Si](C)(C)[C@@H]2[C@@H](CCOC(=O)NCCCCCC(=O)NO)O[C@@]3(C(=O)N(Cc4cccc(I)c4)c4ccccc43)[C@H]2C)cc1 | inactive | inactive | inactive
35 | Cc1ccc(S(=O)(=O)N(C)C[C@@H]2Oc3ccc(NS(=O)(=O)c4ccc(F)cc4)cc3CC(=O)N([C@H](C)CO)C[C@@H]2C)cc1 | inactive | inactive | inactive
36 | CCCNC(=O)N1C[C@H](O)COC[C@H]2O[C@H](CC(=O)N3CCOCC3)CC[C@@H]21 | inactive | inactive | inactive
37 | C[C@H](CO)N1C[C@H](C)[C@@H](CN(C)CC2CC2)Oc2ccc(NS(=O)(=O)c3ccc(F)cc3)cc2C1=O | inactive | inactive | inactive
38 | Cn1cnc(S(=O)(=O)N[C@H]2C=C[C@@H](CC(=O)Nc3ccccc3)O[C@@H]2CO)c1 | inactive | inactive | inactive
39 | Cc1cccc(NC(=O)Nc2ccc3c(c2)C(=O)N(C)[C@H]2CC[C@@H](CC(=O)NCc4ccccc4Cl)O[C@@H]2CO3)c1 | inactive | inactive | inactive
40 | CCOC(=O)[C@H]1C/C=C/C[C@H](C(=O)OCC)C(=O)O[C@H]2[C@@H](OC)O[C@H](CO)[C@@H](OC(=O)c3ccc(Br)cc3)[C@@H]2OC1=O | inactive | inactive | inactive
41 | C[C@@H]1CN([C@H](C)CO)C(=O)c2cc(NC(=O)CCN3CCOCC3)ccc2O[C@H]1CN(C)Cc1ccc2c(c1)OCO2 | inactive | inactive | inactive
42 | C[C@H](CO)N1C[C@H](C)[C@H](CN(C)C(=O)c2cccnc2)Oc2ncc(-c3ccc(C(=O)N(C)C)cc3)cc2C1=O | inactive | inactive | inactive
43 | CCNC(=O)C[C@@H]1CC[C@@H]2[C@H](COC[C@H](O)CN2S(=O)(=O)c2ccc(Oc3ccccc3)cc2)O1 | inactive | inactive | inactive
44 | O=C(C[C@H]1CC[C@H](NC(=O)CN2CCOCC2)[C@H](CO)O1)NC1CCC1 | inactive | inactive | inactive
45 | C[C@@H]1CCCCO[C@@H](CN(C)C(=O)Nc2ccccc2)[C@@H](C)CN([C@@H](C)CO)C(=O)c2cc(NC(=O)Cc3ccccc3)ccc2O1 | inactive | inactive | inactive
46 | CC(C)NC(=O)N(C)C[C@@H]1OCCCC[C@H](C)Oc2ccc(NC(=O)Nc3ccccc3)cc2C(=O)N([C@@H](C)CO)C[C@H]1C | inactive | inactive | inactive
47 | NC(=O)c1cc2ccccc2nc1C(N)=O | inactive | inactive | inactive
48 | C[C@@H]1CCCCO[C@@H](CN(C)C(=O)c2ccccc2)[C@@H](C)CN([C@H](C)CO)C(=O)c2cc(NS(=O)(=O)c3ccc(Cl)cc3)ccc2O1 | inactive | inactive | inactive
49 | CNc1nc(OC)cc(OC)n1 | inactive | inactive | inactive
50 | COc1ccccc1C#Cc1cnc2c(c1)C(=O)N([C@H](C)CO)C[C@@H](C)[C@@H](CN(C)C(=O)CN(C)C)O2 | inactive | inactive | inactive
51 | COc1ccc(NC(=O)Nc2ccc3c(c2)C(=O)N([C@@H](C)CO)C[C@H](C)[C@H](CN(C)S(=O)(=O)c2cccs2)OCCCC[C@H](C)O3)cc1 | inactive | inactive | inactive
52 | C[C@H]1CN([C@@H](C)CO)C(=O)c2cccc(NS(=O)(=O)c3cn(C)cn3)c2O[C@@H]1CN(C)Cc1ccccc1 | inactive | inactive | inactive
53 | C[C@H](CO)N1C[C@H](C)[C@@H](CN(C)Cc2ccc(C(F)(F)F)cc2)OCCCC[C@H](C)Oc2ccc(NC(=O)Cc3ccccc3)cc2C1=O | active | active | inactive
54 | C[C@@H]1CCCCO[C@H](CN(C)C(=O)Cc2ccccc2)[C@H](C)CN([C@@H](C)CO)C(=O)c2cc(NC(=O)C3CCCCC3)ccc2O1 | inactive | inactive | inactive
55 | O=C(C[C@H]1CC[C@H]2[C@@H](COC[C@@H](O)CN2C(=O)c2cccnc2)O1)NCc1ccc(-c2ccccc2)cc1 | inactive | inactive | inactive
